The record followed here is PMC5892938.

The other results are listed elsewhere or left out. At the low end of the ranking the order means little.

In the experiment the target is GST-SBP-SLBP (stem-loop binding protein) (UniProt Q14493). The experiment can be described thus: targeted RNA Bind-n-Seq.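 Further: DESeq read counts versus GST-SBP nonspecific binding control pulldown.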 The conditions noted are these: RBNS binding buffer: 25 mM Tris pH 7.5, 150 mM KCl, 3 mM MgCl2, 0.1% Tween, 0.5 mg/mL BSA, 1 mM DTT; 27 nM protein, 750 pM RNA pool; temperature not stated; high values mean tight binding.
For “GGUCACGUCUCAAUCAACUCAAACGAGGGGGGGAAAACCCCUUUACCCUCAUAUUCAACAGCUCGCAGUCAAG”, the binding signal (log2 fold change) was -0.194.

Turning to “GGUCACGUCUCAAUCAACUCUAUUCCAGGAGUUUUCUCCUGUAAAUUCAACAGCUCGCAGUCAAG”, the binding signal (log2 fold change) is -0.16.

In the case of “GGUCACGUCUCAAUCAACUCUAUUUCAGGAGUUUCCUCCUGUUUAUUCAACAGCUCGCAGUCAAG”, the binding signal (log2 fold change) came out at 0.00445.

With “GGUCACGUCUCAAUCAACUCAACUUCAGGAGUUUGCUCCUGUAAAUUCAACAGCUCGCAGUCAAG”, the binding signal (log2 fold change) is 0.155.

With “GGUCACGUCUCAAUCAACUCAUUCCCCAGGGAAAACCCUGGCAAUUUCAACAGCUCGCAGUCAAG”, the binding signal (log2 fold change) was -0.101.

On to “GGUCACGUCUCAAUCAACUCAAUCGAGGGGGGGAAAACCCCUUUACCCUCACAUUCAACAGCUCGCAGUCAAG”, for which the binding signal (log2 fold change) is -0.253.

As for “GGUCACGUCUCAAUCAACUCUCAAGAGGGGGGGAAAACCCCUUUGCCCUCAAUUUCAACAGCUCGCAGUCAAG”, the binding signal (log2 fold change) was -0.0814.

Consider “GGUCACGUCUCAAUCAACUCAAUUCCCAGGGAAAUCCCUGGUAUAUUCAACAGCUCGCAGUCAAG”, for which the binding signal (log2 fold change) is -0.283.

With “GGUCACGUCUCAAUCAACUCUAGUCCAGGAGUUUUCUCCUGUUUUUUCAACAGCUCGCAGUCAAG”, the binding signal (log2 fold change) is -0.217.

“GGUCACGUCUCAAUCAACUCAUUCCCCAGGGAAAACCCUGGUAAUCUCAACAGCUCGCAGUCAAG”: the binding signal (log2 fold change) came to 0.22.

Consider “GGUCACGUCUCAAUCAACUCAUUUCCAGGAGUUUUCUCCUGCUAACUCAACAGCUCGCAGUCAAG”, for which the binding signal (log2 fold change) came to 0.0368.

Regarding “GGUCACGUCUCAAUCAACUCUUCUUCCAGGGAAAUCCCUGGCUUAUUCAACAGCUCGCAGUCAAG”, the binding signal (log2 fold change) is -0.0924.

Turning to “GGUCACGUCUCAAUCAACUCGUUUUCAGGAGUUUCCUCCUGCAUUCUCAACAGCUCGCAGUCAAG”, the binding signal (log2 fold change) turned out to be 0.204.

Regarding “GGUCACGUCUCAAUCAACUCAUUCUCCAGGGAAAGCCCUGGCUUUUUCAACAGCUCGCAGUCAAG”, the binding signal (log2 fold change) was found to be 0.0656.

As to “GGUCACGUCUCAAUCAACUCUAUAGAGGGGGGGAAAACCCCUUUACCCUCAAACUCAACAGCUCGCAGUCAAG”, the binding signal (log2 fold change) was determined as 0.039.

For “GGUCACGUCUCAAUCAACUCAAUCUCCAGGGAAAGCCCUGGCUAACUCAACAGCUCGCAGUCAAG”, the binding signal (log2 fold change) was determined as 0.405.

Consider “GGUCACGUCUCAAUCAACUCUUUCGAGGGGGGGAAAACCCCUUUGCCCUCACUUUCAACAGCUCGCAGUCAAG”, for which the binding signal (log2 fold change) is -0.243.

On to “GGUCACGUCUCAAUCAACUCAUCGUCAGGAGUUUCCUCCUGCUAAUUCAACAGCUCGCAGUCAAG”, for which the binding signal (log2 fold change) is -0.0608.

Take “GGUCACGUCUCAAUCAACUCAACUCCCAGGGAAAGCCCUGGCUAAUUCAACAGCUCGCAGUCAAG”: the binding signal (log2 fold change) stood at 0.0142.

Turning to “GGUCACGUCUCAAUCAACUCAUCUUCAGGAGUUUGCUCCUGCAUUUUCAACAGCUCGCAGUCAAG”, the binding signal (log2 fold change) was -0.065.

On to “GGUCACGUCUCAAUCAACUCAACUCCAGGAGUUUUCUCCUGCAAUGUCAACAGCUCGCAGUCAAG”, for which the binding signal (log2 fold change) was -0.102.

On to “GGUCACGUCUCAAUCAACUCUUCGCCAGGAGUUUUCUCCUGUAAACUCAACAGCUCGCAGUCAAG”, for which the binding signal (log2 fold change) turned out to be 0.124.

“GGUCACGUCUCAAUCAACUCGUCUUCAGGAGUUUUCUCCUGUUUAUUCAACAGCUCGCAGUCAAG”: the binding signal (log2 fold change) is -0.14.

As to “GGUCACGUCUCAAUCAACUCUUUUUCCAGGGAAACCCCUGGCAAUCUCAACAGCUCGCAGUCAAG”, the binding signal (log2 fold change) was determined as 0.214.

Regarding “GGUCACGUCUCAAUCAACUCAUUCCCCAGGGAAAGCCCUGGUAUUUUCAACAGCUCGCAGUCAAG”, the binding signal (log2 fold change) came to 0.224.

In the case of “GGUCACGUCUCAAUCAACUCAAUUCCAGGAGUUUACUCCUGCAUUCUCAACAGCUCGCAGUCAAG”, the binding signal (log2 fold change) was 0.0222.

With “GGUCACGUCUCAAUCAACUCUACUUCAGGAGUUUUCUCCUGCUUAUUCAACAGCUCGCAGUCAAG”, the binding signal (log2 fold change) worked out at 0.0591.

Regarding “GGUCACGUCUCAAUCAACUCUUCGCCAGGAGUUUUCUCCUGCUUUCUCAACAGCUCGCAGUCAAG”, the binding signal (log2 fold change) is -0.0133.

“GGUCACGUCUCAAUCAACUCUUUCUCCAGGGAAAGCCCUGGCAUUCUCAACAGCUCGCAGUCAAG”: the binding signal (log2 fold change) worked out at 0.179.

“GGUCACGUCUCAAUCAACUCAUUCUCCAGGGAAAACCCUGGUUAACUCAACAGCUCGCAGUCAAG”: the binding signal (log2 fold change) turned out to be 0.0621.

Consider “GGUCACGUCUCAAUCAACUCAAUAGAGGGGGGGAAAACCCCUUUACCCUCAGAAUCAACAGCUCGCAGUCAAG”, for which the binding signal (log2 fold change) is -0.492.

Turning to “GGUCACGUCUCAAUCAACUCAAUUUCAGGAGUUUACUCCUGUUUUCUCAACAGCUCGCAGUCAAG”, the binding signal (log2 fold change) is -0.0153.

As for “GGUCACGUCUCAAUCAACUCUAUCUCCAGGGAAACCCCUGGUUUACUCAACAGCUCGCAGUCAAG”, the binding signal (log2 fold change) was -0.013.

Take “GGUCACGUCUCAAUCAACUCAUCGCCCAGGGAAAUCCCUGGUUUUUUCAACAGCUCGCAGUCAAG”: the binding signal (log2 fold change) stood at 0.15.

As to “GGUCACGUCUCAAUCAACUCUCUAGAGGGGGGGAAAACCCCUUUACCCUCGUUAUCAACAGCUCGCAGUCAAG”, the binding signal (log2 fold change) was -0.142.

In the case of “GGUCACGUCUCAAUCAACUCAUCUUCAGGAGUUUACUCCUGCUAACUCAACAGCUCGCAGUCAAG”, the binding signal (log2 fold change) came out at 0.134.

Regarding “GGUCACGUCUCAAUCAACUCUUUUCCCAGGGAAACCCCUGGUAUAUUCAACAGCUCGCAGUCAAG”, the binding signal (log2 fold change) was determined as 0.104.

Turning to “GGUCACGUCUCAAUCAACUCAUCGUCAGGAGUUUCCUCCUGUAAACUCAACAGCUCGCAGUCAAG”, the binding signal (log2 fold change) stood at 0.105.

In the case of “GGUCACGUCUCAAUCAACUCAGUUUCAGGAGUUUACUCCUGUAUAUUCAACAGCUCGCAGUCAAG”, the binding signal (log2 fold change) worked out at 0.115.

Regarding “GGUCACGUCUCAAUCAACUCUUUCUCAGGAGUUUUCUCCUGUUAUCUCAACAGCUCGCAGUCAAG”, the binding signal (log2 fold change) was -0.0521.

In the case of “GGUCACGUCUCAAUCAACUCAAUCCCCAGGGAAAACCCUGGCUAACUCAACAGCUCGCAGUCAAG”, the binding signal (log2 fold change) is -0.246.

As to “GGUCACGUCUCAAUCAACUCAGUCCCAGGAGUUUGCUCCUGUAUUUUCAACAGCUCGCAGUCAAG”, the binding signal (log2 fold change) came out at 0.127.

Take “GGUCACGUCUCAAUCAACUCUUCUUCCAGGGAAAACCCUGGUAAUUUCAACAGCUCGCAGUCAAG”: the binding signal (log2 fold change) was -0.174.

On to “GGUCACGUCUCAAUCAACUCUCAAGAGGGGGGGAAAACCCCUUUACCCUCGUUUUCAACAGCUCGCAGUCAAG”, for which the binding signal (log2 fold change) was -0.248.

In the case of “GGUCACGUCUCAAUCAACUCCCUCGAGGGGGGGAAAACCCCUUUACCCUCAUCGUCAACAGCUCGCAGUCAAG”, the binding signal (log2 fold change) was 0.532.

For “GGUCACGUCUCAAUCAACUCAAUUCCCAGGGAAAACCCUGGUAUUCUCAACAGCUCGCAGUCAAG”, the binding signal (log2 fold change) was -0.205.

As for “GGUCACGUCUCAAUCAACUCUCCAGAGGGGGGGAAAACCCCUUUACCCUCCUUAUCAACAGCUCGCAGUCAAG”, the binding signal (log2 fold change) is -0.322.
